# Experimental data: PubChem BioAssay AID504339 (National Center for Advancing Translational Sciences (NCATS), 2011)
# In all, about 390,000 compounds went through this assay and about 17,000 (4.4%) were called active. This list was built around the results that the source calls inconclusive (neither active nor inactive); the mix of calls is not that of the screen. The call rests on the fitted dose curve; in most records, active means well fitted inhibition curve with a large enough effect; inconclusive means small, poorly fitted or top-dose-only effect; inactive means no such curve, though single readings can be large or run the other way. Where the call is inconclusive, the potency comes from a doubtful curve fit.
# Target: Lysine-specific demethylase 4A (Homo sapiens) (UniProt O75164)
# UniProt O75164, sequence (O75164 whole entry, looked up, the tested form may be a part): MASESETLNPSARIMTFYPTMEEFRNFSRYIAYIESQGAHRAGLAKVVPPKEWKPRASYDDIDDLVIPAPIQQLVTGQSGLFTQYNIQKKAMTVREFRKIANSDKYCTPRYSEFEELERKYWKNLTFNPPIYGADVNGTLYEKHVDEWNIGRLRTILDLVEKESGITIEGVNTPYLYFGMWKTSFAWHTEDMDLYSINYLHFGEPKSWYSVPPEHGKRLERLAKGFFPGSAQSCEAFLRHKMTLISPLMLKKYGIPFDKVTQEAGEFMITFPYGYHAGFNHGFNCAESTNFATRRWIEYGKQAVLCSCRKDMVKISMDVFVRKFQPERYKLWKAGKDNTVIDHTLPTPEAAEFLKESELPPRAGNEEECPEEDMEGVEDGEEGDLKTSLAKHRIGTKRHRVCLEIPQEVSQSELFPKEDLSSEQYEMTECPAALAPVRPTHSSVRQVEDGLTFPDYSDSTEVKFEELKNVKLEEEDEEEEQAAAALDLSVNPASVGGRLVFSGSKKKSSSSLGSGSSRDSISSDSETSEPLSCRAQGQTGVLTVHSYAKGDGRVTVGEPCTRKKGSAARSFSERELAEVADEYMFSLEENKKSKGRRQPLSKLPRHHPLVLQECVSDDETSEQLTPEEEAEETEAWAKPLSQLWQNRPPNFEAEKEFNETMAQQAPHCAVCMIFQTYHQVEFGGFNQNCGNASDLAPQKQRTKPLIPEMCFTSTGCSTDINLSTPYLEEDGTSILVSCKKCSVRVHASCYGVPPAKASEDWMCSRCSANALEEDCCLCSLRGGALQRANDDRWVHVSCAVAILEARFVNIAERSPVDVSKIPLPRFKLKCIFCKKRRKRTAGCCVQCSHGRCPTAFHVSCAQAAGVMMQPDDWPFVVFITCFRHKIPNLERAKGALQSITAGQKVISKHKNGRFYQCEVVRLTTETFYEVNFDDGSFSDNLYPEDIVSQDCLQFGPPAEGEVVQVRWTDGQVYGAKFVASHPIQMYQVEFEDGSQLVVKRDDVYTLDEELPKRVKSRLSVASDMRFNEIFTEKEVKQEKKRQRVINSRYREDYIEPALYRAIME
# Assay: qHTS Assay for Inhibitors of JMJD2A-Tudor Domain; further: nearly all actives have a fitted effect of over 50% in size
# Details: AlphaScreen JMJD2A-Tudor / H3K4me3 peptide binding; series mostly up to 114 µM
# Potency means the concentration at half of the fitted maximal effect; tags describe the fitted curve by direction and shape.
row,SMILES,Potency
1,O=C(NCc1ccccc1)/C(=C/c1ccco1)NC(=O)c1ccco1,inactive
2,CN(C)c1ccc(N2C(=NC(=O)COc3ccccc3)SC3CS(=O)(=O)CC32)cc1 (stereo unspecified),"inconclusive: 50.1 µM [inhibitor, partial curve]"
3,Cn1cncc1C#Cc1c(C=O)n(C)c2ccccc12,"inconclusive: 50.1 µM [inhibitor, partial curve]"
4,O=C1CCc2cccc(O)c2N1,active: 79.4 µM
5,CNCC(O)Cn1c2c(c3ccccc31)CCCC2 (stereo unspecified),active: 28.2 µM
6,Cc1ccc(NC(=S)NNc2ccc(C(=O)O)cc2[N+](=O)[O-])cc1C,active: 7.94 µM
7,COc1cc(Nc2ccc(S(=O)(=O)N3CCN(C)CC3)cc2[N+](=O)[O-])cc(OC)c1,"inconclusive: 50.1 µM [inhibitor, partial curve]"
8,CC(C)(C)NC(=O)C12CC3CC(CC(Cl)(C3)C1)C2,inactive
9,COc1cc(OC)cc(-c2nnc3n2N=C(c2ccc(OC)cc2OC)CS3)c1,"inconclusive: 56.2 µM [inhibitor, partial curve]"
10,Cc1cccc(CSc2nc3c(cc2C#N)CCC3)c1,inactive
11,COc1cccc(C2c3c(ncn(-c4cccc(Br)c4)c3=N)Oc3ccc4ccccc4c32)c1 (stereo unspecified),"inconclusive: 50.1 µM [inhibitor, partial curve]"
12,COc1ccccc1/C=N/NC(=S)NCc1ccco1,"inconclusive: 100 µM [inhibitor, partial curve, poor fit]"
13,CC(=O)c1ccc(S(=O)(=O)NCCC(=O)OCC(=O)N2CCCC2=O)cc1,inactive
14,CCC(=O)N1CCN(c2ccc(NC(=O)COc3ccc(C)cc3C)cc2)CC1,inactive
15,O=C1/C(=C/c2ccco2)SC(=S)N1CC1CCCO1 (stereo unspecified),active: 25.1 µM
16,O=S(=O)(c1cnc[nH]1)N1CCN(C(c2ccc(F)cc2)c2ccc(F)cc2)CC1,"inconclusive: 89.1 µM [inhibitor, partial curve]"
17,O=C(NCc1ccco1)C1CCN(C(=O)Cc2ccccc2)CC1,inactive
18,COc1cccc(N2CCN(C(C)C(=O)NC34CC5CC(CC(C5)C3)C4)CC2)c1 (stereo unspecified),"inconclusive: 63.1 µM [inhibitor, partial curve]"
19,Oc1ccc(C2Nc3cccc4cccc(c34)N2)cc1,active: 44.7 µM
20,COc1ccc(F)cc1S(=O)(=O)NCC(c1ccc2c(c1)OCO2)N1CCN(C)CC1 (stereo unspecified),"inconclusive: 100 µM [inhibitor, single point]"
21,CN(C)NC(=O)c1cccc(Cl)c1,"inconclusive: 89.1 µM [inhibitor, single point]"
22,CCOC(=O)c1c(C)[nH]c(C)c1S(=O)(=O)N1CCCC(C(=O)N2CCN(c3ccc(Cl)cc3)CC2)C1 (stereo unspecified),"inconclusive: 50.1 µM [inhibitor, partial curve]"
23,S=c1[nH]nc(Nc2ccccc2Cl)s1,active: 6.31 µM

row,SMILES,Potency
1,CC1(OC(=O)C2CCCC2)C(=O)C=C2C=C(c3ccsc3)N(Cc3ccco3)C=C2C1=O (stereo unspecified),"inconclusive: 63.1 µM [inhibitor, partial curve, poor fit]"
2,COc1ccc(/C=N/NC(=O)Cc2csc(Nc3cccc(C(F)(F)F)c3)n2)c(OC)c1,"inconclusive: 56.2 µM [inhibitor, partial curve, poor fit]"
3,C[N+]1(CCC(=O)c2ccccc2)CCCCC1,"inconclusive: 89.1 µM [inhibitor, single point]"
4,OCCN1CCN(CCSc2ccccc2)CC1,active: 28.2 µM
5,CCOc1cccc(/C(O)=C2/C(=O)C(=O)N(CCOC)C2c2ccc(C)o2)c1 (stereo unspecified),"inconclusive: 89.1 µM [inhibitor, single point]"
6,CCOC(=O)c1[nH]c(C)c(CCC(=O)N2CCN(c3cc(Cl)ccc3C)CC2)c1C,"inconclusive: 56.2 µM [inhibitor, partial curve]"
7,COC(=O)C1=C(C(=O)OC)[C@@H]2Nc3ccccc3[C@@]23C[C@@H](C(=O)OC)N(C(=O)c2cc(C)oc2C)C3=N1,"inconclusive: 12.6 µM [inhibitor, partial curve, poor fit]"
8,Cc1ccc(OCCCn2ccnc2)cc1C,inactive
9,CCN1CCN(c2ccc(S(=O)(=O)N3CCCCC3)cc2NC(=O)c2ccc(F)cc2)CC1,"inconclusive: 89.1 µM [inhibitor, single point]"
10,O=C(NC(=S)/C(=C1\CCCCCN1)[N+](=O)[O-])c1ccccc1,"inconclusive: 50.1 µM [inhibitor, partial curve]"
11,CCOC(=O)N1CCC(NC(=O)c2cccs2)CC1,inactive
12,Cc1nn(-c2ccccc2)c2c1cc1c(=O)[nH]c(=O)nc-1n2-c1cccc(C(F)(F)F)c1,inactive
13,CC(C)n1cc(/C=C/c2cc[n+](C)cc2)c2ccccc21,"inconclusive: 39.8 µM [inhibitor, single point]"
14,CCCC1C2CN(C(C)C)CC=C2C(C#N)=C(N)C1(C#N)C#N (stereo unspecified),"inconclusive: 89.1 µM [inhibitor, single point]"
15,CC(C)CC(CSc1ccc(Br)cc1)N1CCN(C)CCC1=O (stereo unspecified),inactive
16,CCOC(=O)Cc1csc(NC(=O)c2cc(OC)cc(OC)c2)n1,active: 79.4 µM
17,COc1ccc(C(=O)Nc2nc3ccccc3s2)c(OC)c1,active: 20 µM
18,Cc1cccc(N2CCN(C(c3ccc(F)cc3)c3nnc(-c4ccccc4)o3)CC2)c1C (stereo unspecified),"inconclusive: 89.1 µM [inhibitor, partial curve]"
19,COc1cc(NC(=O)Cn2ccsc2=N)c(C)cc1[N+](=O)[O-],"inconclusive: 100 µM [inhibitor, partial curve, poor fit]"
20,COC(=O)c1c(C)[nH]c(O)c1C=Nc1ccc(C#N)cc1,"inconclusive: 50.1 µM [inhibitor, partial curve]"
21,Cc1cccc(NC(=O)CSc2nc3ccccc3c3nc(CCn4cncc4C)nn23)c1,"inconclusive: 79.4 µM [inhibitor, partial curve]"
22,O=C1/C(=C/c2ccncc2)SC(=S)N1Nc1ccccc1,"inconclusive: 50.1 µM [inhibitor, partial curve]"
23,CCOC(=O)c1c(/N=C/c2cc(C)ccc2O)sc2c1CCC2,"inconclusive: 35.5 µM [inhibitor, full curve]"
